Target: T1, carcinoembryonic antigen (CEA) on LoVo, LS174T or H508 tumor cells (UniProt P06731 35-702, limits assumed)
T1 sequence (looked up): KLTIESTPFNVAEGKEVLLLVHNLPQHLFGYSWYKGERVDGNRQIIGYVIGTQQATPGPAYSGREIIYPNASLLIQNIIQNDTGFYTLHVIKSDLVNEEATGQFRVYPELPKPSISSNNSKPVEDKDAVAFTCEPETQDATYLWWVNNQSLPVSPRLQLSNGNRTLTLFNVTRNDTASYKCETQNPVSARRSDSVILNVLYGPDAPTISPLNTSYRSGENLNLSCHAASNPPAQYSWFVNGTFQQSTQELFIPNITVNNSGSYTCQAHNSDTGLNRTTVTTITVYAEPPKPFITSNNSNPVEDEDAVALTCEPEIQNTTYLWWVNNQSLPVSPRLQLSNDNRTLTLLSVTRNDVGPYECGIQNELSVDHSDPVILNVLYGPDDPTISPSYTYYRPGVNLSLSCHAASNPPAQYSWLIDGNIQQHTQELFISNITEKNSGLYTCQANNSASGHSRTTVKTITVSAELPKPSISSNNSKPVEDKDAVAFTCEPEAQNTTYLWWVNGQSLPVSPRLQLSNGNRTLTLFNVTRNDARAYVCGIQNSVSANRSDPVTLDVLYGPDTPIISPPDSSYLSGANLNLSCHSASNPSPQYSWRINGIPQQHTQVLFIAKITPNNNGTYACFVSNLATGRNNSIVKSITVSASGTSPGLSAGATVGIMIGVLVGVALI
Assay: cell-based or functional assay

B1: MFE23.CD28 CoStAR (MFE23 scFv fused to full length human CD28) (receptor)
chain: QVQLQQSGAELVRSGTSVKLSCTASGFNIKDSYMHWLRQGPEQGLEWIGWIDPENGDTEYAPKFQGKATFTTDTSSNTAYLQLSSLTSEDTAVYYCNEGTPTGPYYFDYWGQGTTVTVSSGGGGSGGGGSGGGGSENVLTQSPAIMSASPGEKVTITCSASSSVSYMHWFQQKPGTSPKLWIYSTSNLASGVPARFSGSGSGTSYSLTISRMEAEDAATYYCQQRSSYPLTFGAGTKLELKR[about 150 residues not written out]FWVLVVVGGVLACYSLLVTVAFIIFWVRSKRSRLLHSDYMNMTPRRPGPTRKHYQPYAPPRDFAAYRS
T-cell expansion over 18 days with LoVo-OKT3 and IL-2: 20 fold

— US20220348631A1 (INSTIL BIO UK, published 2022)
